The values below come from the RNAGym collection of RNA variant scans (doi:10.7554/elife.90254).

Read counts are not given, so values of variants with three or more changes are uncertain.

B1: LINE1-mini (parent)
chain: GGCAGAGCUCAACACAGCGUGGCAAAGUGGCUGUGGCUAGACUGCC

Variants of B1 are the subject of this series. Put plainly: self-cleavage, relative activity (ratio to wild type); higher = more cleavage; in vitro, sequencing; the parent is a self-cleaving ribozyme.
On to G2C A4U A16G G21U U34G C42A C45A, for which the self-cleavage stood at 0.01.
For A16G C37A A41C, the self-cleavage stood at 0.02.
As for G7C C8U G19A G27U G29C, the self-cleavage came to 0.24.
With G21C C31U G40A, the self-cleavage was 0.
As for C23U U28C C42U, the self-cleavage was 0.34.
G5U C23A A25G: the self-cleavage was 0.02.
With C8G C10A U32C C42G, the self-cleavage was determined as 0.01.
For C15G A24C U32A G40U the value was 0; for A12G C42U C46A, 0.04.
For G5A C31U G40C the value was 0.16.
As for G2C G5C C8U, the figure is 0.03.
Consider G7C A14G U32G, for which the self-cleavage stood at 0.08.
As for G5U A14C A16G G17C G30U C45A, the figure is 0.09; as for G27C C37A G40C, 0.05; as for A14C G40C U43C, 0.07.
As for C18G A24C C37U, the self-cleavage worked out at 0.02.
In the case of G2U A14C A39G, the self-cleavage came to 0.02.
For G5U G19A G36A, the self-cleavage was 0.16.
For C18U G29C G30A the value was 0.41; for G27U G36C C37U U38C U43A G44U, 0.01; for G1U C13A G19U C42A C45U, 0.07.
Consider C10U C13G A14G C37A C45U, for which the self-cleavage amounted to 0.03.
Take C10G C18G G27U U38A: the self-cleavage amounted to 0.06.
Regarding A4U U9G G36U C42U, the self-cleavage was 0.01.
G2C G36A A39G: the self-cleavage came out at 0.95.
For U9A G29U A41C U43C the value was 0.04; for G2A C13G G17A C45A, 0.19.
Consider G7U C13A U28C, for which the self-cleavage worked out at 0.08.
For the variant C10G A26C G40C, the self-cleavage turned out to be 0.01.
Take G1U U32C G33C G35C: the self-cleavage was 0.05.
For A12C C23G G35A the value was 0.05.
As to G7U G17C U32G, the self-cleavage came out at 0.1.
Turning to G5U G22U C42U, the self-cleavage came to 0.15.
For C3A A11U G17A the value was 0.05; for C3G A6U U20A U28C, 0.13; for C23U G33C C37A, 0.03.
On to A11U G29U G44C, for which the self-cleavage came to 0.08.
Consider U9G C10U C15G, for which the self-cleavage stood at 0.04.
A12C C18A G40U: the self-cleavage was determined as 0.01.
For the variant A14C G17C A25G G40A G44A, the self-cleavage is 0.04.
A4G C8U G19U U28C: the self-cleavage was 0.07.
On to A4C G19U A24U, for which the self-cleavage was 0.03.
Consider A6U C37G A41C, for which the self-cleavage was 0.02.
In the case of G21C U38A A41G, the self-cleavage came to 0.1.
As for A4G C8G A41U, the self-cleavage turned out to be 0.2.
Take A11C A39U C42U: the self-cleavage came to 0.03.
As to C8A G21A A26U U28C, the self-cleavage is 0.11.
G1A A16C A26G: the self-cleavage came to 0.06.
Consider G29A G33A G36U, for which the self-cleavage amounted to 0.05.
For A4U A26C G33C, the self-cleavage was found to be 0.07.
For C10U G29C C42G C45U the value was 0.03; for C8A C10A G35U, 0.05; for G5U A14U A26U G35A G40C, 0.04.
For G5C C18G U43C the value was 0.01; for G5U C8U C15G, 0.08.
Take C3U C13U G17C C37U C45G: the self-cleavage was found to be 0.11.
In the case of G2U C13A A39G, the self-cleavage is 0.03.
As for A11G G17C C37A, the figure is 0.02; as for G1A G5A C46G, 0.21; as for C18U G21A C42A, 0.09.
For G1C G5C A16G the value was 0.01; for A12C C15G U20G A25G G44U, 0.02.
As for A4G U9C A24U U32C, the self-cleavage was 0.02.
As for G7U U9C C10A G17C U43C C46A, the self-cleavage is 0.05.
As for U32G G44U C46U, the figure is 0.02.
For G5U A14G A16U A39G the value was 0.07.
Regarding C13A C15A C18U G21A, the self-cleavage came out at 0.08.
Consider A4U C10A G19A C42G, for which the self-cleavage came to 0.01.
Turning to C3A G5U C13A G22U G29U A39U C46U, the self-cleavage was 0.34.
For the variant A11U C42A C45A, the self-cleavage came to 0.02.
For G5C C13A G33C the value was 0.05.
As for G33A U38C A39U, the self-cleavage is 0.02.
Take A14C G36U U43A: the self-cleavage was determined as 0.03.
For G5C C31A G44A, the self-cleavage came out at 0.04.
For C13U C15A U43A, the self-cleavage was 0.18.
Consider G19C G21U A26C G40C, for which the self-cleavage was found to be 0.13.
As to U9C C31U C42U G44U, the self-cleavage turned out to be 0.02.
For A11U U34G G40U the value was 0.01; for C18U G44C C46U, 0.06; for C10U G19A U20C C37G C42U, 0.
For C31U U34G U38G the value was 0.02.
Turning to A11C G21U U32A G40U, the self-cleavage was found to be 0.01.
On to A6C U9G A11C G29U U38A, for which the self-cleavage is 0.
For A24C G30U C46A the value was 0.07.
Take G2A C13U G17U G22U U43C: the self-cleavage is 0.26.
As for G7C G17U A39C, the self-cleavage was 0.45.
With A14U G29C C37G, the self-cleavage was 0.04.
As to A4G A14C C18A, the self-cleavage came to 0.07.
For the variant A12C C18G C31U A39U, the self-cleavage turned out to be 0.02.
For G2A G5A C10A G21C the value was 0.04; for C3G A11U A14C C18A C37A, 0.02.
Regarding A4G C23A A24G U28C G35A U43A, the self-cleavage was determined as 0.04.
As for G2A C23A C31G, the figure is 0.12.
As to A11G G19A U28A C42A U43C, the self-cleavage is 0.
For G1U G2C G7U G44A the value was 0.04; for C3U A41U C42A, 0.17.
For G1U G2A C15A A24U A26C, the self-cleavage amounted to 0.24.
Take C13G G19U C31U G44C C45U: the self-cleavage worked out at 0.03.
As to G1U A6G G7C A12G, the self-cleavage came to 0.
As for U9A C15G U38C, the self-cleavage stood at 0.17.
G1A G5A A11C G22A U28G C31U: the self-cleavage is 0.03.
Consider U9G A25G C42A, for which the self-cleavage was found to be 0.
On to G17C U20A A26U, for which the self-cleavage came out at 0.25.
In the case of C15U G19U C42A G44A, the self-cleavage came out at 1.34.
As for A6C C10A A16G A39C, the figure is 0.08.
For G2A C8G U38G the value was 0.13; for C18G A24G G27U G33A, 0.02.
Take C3U C8A C10G C31G G33U: the self-cleavage is 0.02.
For G1C G29A C46A, the self-cleavage was found to be 0.61.
With G1C A14C U32A, the self-cleavage is 0.01.
On to G19U A26C C42U C45U, for which the self-cleavage was found to be 0.17.
C10A C15U C23A: the self-cleavage is 0.04.
As to G2C A14C A16G A25C G29C, the self-cleavage was found to be 0.06.
For A14G U20A G27U the value was 0.82; for C10U A11U G17U, 0.05.
On to C10U G19A G33A G44U, for which the self-cleavage was 0.06.
Regarding G17A U20C A26C, the self-cleavage amounted to 0.08.
On to A6C G36C G40A, for which the self-cleavage is 0.15.
Consider G5C G7U A14U C45A C46A, for which the self-cleavage came out at 0.06.
Take U9G C10A G36A A39G: the self-cleavage came to 0.03.
For C3A G7C A16U the value was 0.07.
In the case of G7A C8A G29U C31A, the self-cleavage was determined as 0.1.
As for U20G G21C G40A A41U, the self-cleavage stood at 0.01.
Consider C23U A24C A39C, for which the self-cleavage was 0.02.
As for G21U C31U U34C, the figure is 0.05.
Consider U9C G29U U34C C37A, for which the self-cleavage was found to be 0.04.
Regarding C10U G21C U34G C42U, the self-cleavage came out at 0.07.
Regarding A26U U32C U43G G44U, the self-cleavage came to 0.04.
For the variant G1U G17U A24G A26G, the self-cleavage turned out to be 0.08.
In the case of G1A C23U C37A, the self-cleavage came out at 0.08.
As for U9A G30A G33C, the self-cleavage was determined as 0.01.
For C13A U20A G22C U38C C42A the value was 0.01; for A26C G30U U34C, 0.54; for G7C G35C G36A, 0.04.
C3U U28C G29A: the self-cleavage is 0.09.
As for C18U A24G U28C C45U, the figure is 0.28; as for A4C A26U A41U, 0.18.
As for A16G G29A G44C, the self-cleavage was found to be 0.11.
Turning to U9C G19C G22A G27U U43G, the self-cleavage is 0.
For G27C A39G C42A C46U the value was 0.1; for A6U A12C C18A, 0; for G1A C15U G33A C45U, 0.16.
For the variant C8U G21U U43A, the self-cleavage amounted to 0.02.
G30U C31G A41G: the self-cleavage is 0.
As for G2A A16G C31G U43C C45G, the self-cleavage came out at 0.
In the case of A4C G29C C31A, the self-cleavage stood at 0.34.
As for A16U G17A G30A, the self-cleavage was found to be 0.07.
On to A14U C31U G33C U38A, for which the self-cleavage was 0.03.
As to G36A C37G C42U, the self-cleavage came to 0.07.
G2A C3U G17U G33U: the self-cleavage amounted to 0.24.
With A4U C42A C45U, the self-cleavage amounted to 0.09.
C3U C15G G29U G33U: the self-cleavage stood at 0.01.
Turning to C3U A6C C15U, the self-cleavage was determined as 0.11.
Turning to G2U A4U C18U A25U, the self-cleavage is 0.27.
Take G2C G7U A12U G30U A41C: the self-cleavage turned out to be 0.11.
As to C8G A12U G30A, the self-cleavage was determined as 0.06.
As to G5A U38G C46G, the self-cleavage was found to be 0.06.
Regarding G2C G17U G36A A39U C46U, the self-cleavage came out at 0.19.
G5U C13U A16U G33U U34C: the self-cleavage amounted to 0.05.
Regarding G2U G5U A6C G27U G40C A41U, the self-cleavage amounted to 0.
As for C10U A12U G19U G30C, the self-cleavage is 0.15.
As for C23A G33C C37U, the figure is 0.11.
As for C3U G27U G30A C31G, the self-cleavage came out at 0.05.
With G2C G7A C10U, the self-cleavage was 0.02.
For A12G G19A G44U the value was 0.04; for A12C C23A G27U G33U, 0.02; for G2C A6U G17A G35A A39C, 0.03.
